Where “and” joins values, the source holds several entries; their conditions need not be identical. Equal values may be shown once. The full ranking holds about 13,000 compounds; the median of “IFI” is about 4, and the highest 2% start at about 17. Some of the results follow.

We go through 25 compounds from ChEMBL document CHEMBL1157539, “Thousands of chemical starting points for antimalarial lead identification” (Nature, 2010).

The test in a line: GSK_TCMDC: Inhibition Frequency Index (IFI). The number of non-kinase HTS assays where a compound showed > 50 % inhibition, expressed as a percentage of the number of such assays in which the compound was tested (-0 is zero). Format: functional.
As for `CN(C)CCOc1cc(NC(=O)Nc2ccc3c(c2)CCCC3=O)ccc1I`, the IFI stood at 1.43%.

On to `OC(CNCc1cccc(Oc2ccc(Cl)cc2)c1)c1cc(C(F)(F)F)cc(C(F)(F)F)c1` (stereo not given), for which the IFI is 0.87%.

For `CN(C)c1ccc(-c2csc(C(=O)NCC3CCN(Cc4ccc(C(C)(C)C)cc4)C3)c2)cc1` (stereo not given), the IFI is 14.6%.

For the compound `CCOC(=O)C1=C(C)NC2=C(C(=O)C(C(=O)OC)C(C)C2)C1c1cc(Br)c(OCC)c(OC)c1` (stereo not given), the IFI was 1.42%.

`Cc1nc(N)nc(N)c1-c1cc(Cl)c(N)c(Cl)c1`: the IFI worked out at 1.46%.

`C[C@H](CNc1ccnc(Nc2ccc3[nH]c(=O)[nH]c3c2)n1)c1ccccc1`: the IFI was 0% and 3.45%.

In turn, `Cc1nn(-c2ccc(Cl)cc2)c2[nH]c(CN3CCN(c4cccc(Cl)c4)CC3)cc(=O)c12` came in with an IFI of 13%.

For `CC(C)c1ccc2[nH]c(C(=O)NC3CCC(N4CCCc5ccc(C#N)cc5C4)CC3)cc2c1` (stereo not given), the IFI turned out to be 11.5%.

In turn, `CC(=O)Nc1ccc(CNCCc2ccc(NC(=O)c3cc(Cl)cc(Cl)c3)cc2)cc1` returned an IFI of 3.57%.

In turn, `CN1CCN(c2cc(-c3cccnc3)nc(-c3ccncc3)n2)CC1` showed an IFI of 1.52%.

Compound `CCn1ccc2c(N3CCCC3=O)cc(C(=O)N[C@@H](Cc3ccccc3)[C@H](O)CNCc3cccc(OC)c3)cc21` returned an IFI of 2.08%.

In the case of `O=C(N[C@H]1CCN(Cc2ccc(OC3CCN(Cc4ccccc4)CC3)c(Br)c2)C1)c1ccc(Cl)c(Cl)c1`, the IFI was 10%.

In turn, `O=C(Nc1ccc(N2CCCN(Cc3cccc(F)c3)CC2)cc1)c1ccc(F)cc1` returned an IFI of 8.82%.

In turn, `Oc1cc2c(cc1CN1CCN(Cc3ccccc3F)CC1)CCC2` returned an IFI of 1.96%.

`CCC(C)(C)c1ccc(OCCCC(=O)Nc2ccc(Cl)c([N+](=O)[O-])c2)c(C(C)(C)CC)c1` displayed an IFI of 3.82%.

Turning to `O=C(CCc1c[nH]cn1)Nc1ccc(-c2cccc(-c3nc4ccccc4[nH]3)c2)cc1`, the IFI was determined as 0.88%.

Turning to `COc1cc(OC)c(NC(=O)Nc2ccnc3ccccc23)cc1Cl`, the IFI worked out at 0.72%.

`CCOC(=O)c1ccc(NC(=O)Nc2ccc(-c3cccc(-c4nc5cccc(C)c5[nH]4)c3)cc2)cc1`: the IFI was found to be 7%.

With `Cc1c(Cc2ccccc2)c(=O)oc2c(C)c3c(cc12)CN(CC(C)c1ccccc1)CO3` (stereo not given), the IFI was found to be 5.17%.

On to `CC(C)c1ccc(CN2CCC(CNC(=O)c3cc(-c4cccc(Cl)c4)cs3)C2)cc1` (stereo not given), for which the IFI amounted to 14%.

The compound `CCCCN(CCCC)/C(=N/c1cccc(Cl)c1Cl)Nc1ccc(C#N)cc1O` came in with an IFI of 7.14%.

Compound `CN(C)CCN(C)Cc1cccc(-c2ccc3c(Nc4cc(O)c(Cl)cc4F)ccnc3c2)c1` came in with an IFI of 7.58%.

`CS(=O)(=O)Cc1ccc(Nc2ncc(Cl)c(Nc3cccnc3C(N)=O)n2)cc1` displayed an IFI of 8%.

`CC1Cc2ccccc2N1S(=O)(=O)c1cc(OCC(F)(F)F)ccc1OCC(F)(F)F` (stereo not given) came in with an IFI of 4.55%.

For `Cc1cc(CNCCCCCCCNCc2ccc(-c3ccccc3)cc2)ccc1O`, the IFI stood at 6.62%.
